Data reported in PubChem BioAssay AID743279 (National Center for Advancing Translational Sciences (NCATS), 2014).
In all, about 360,000 compounds went through this assay and about 17,000 (4.7%) were called active. This list was built around the results that the source calls inconclusive (neither active nor inactive); the mix of calls is not that of the screen. Cut-off read from the data, not from the text of the source: active = activity change below about -50%; inconclusive = mostly about -30% to -49%; inactive = weaker than that.

Assay: qHTS for Inhibitors of Inflammasome Signaling: IL-1-beta AlphaLISA Primary Screen
Details: THP-1 LPS/ATP IL-1B secretion, 16 h; at 57.5 µM, stronger effect = lower value
Summary of the method: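 THP-1 cells pretreated 1 hr with compounds (up to 57.5 uM final), then stimulated with LPS (250 ng/mL final) plus ATP (1.25 mM final); secreted IL-1B measured by AlphaLISA after 16 hr, decreased signal indicating inhibition.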
% is set by controls: 0 for no effect and ±100 for the full control effect.

Row | SMILES | activity change
1 | CCOC(=O)c1cc(C#N)c(N2CCN(C(=O)c3cccc(C(F)(F)F)c3)CC2)nc1C(F)(F)F | inconclusive: -34.2%
2 | Cc1c(C(=O)N2CCN(c3ccc([N+](=O)[O-])cc3)CC2)sc2ncn(CC(=O)N3CCOCC3)c(=O)c12 | inconclusive: -35.3%
3 | Cc1ccc(NC(=O)N(Cc2cc3cc(C)cc(C)c3[nH]c2=O)CC2COCCO2)cc1 (stereo not drawn) | inconclusive: -32.8%
4 | COc1cccc(NC(=O)CSC2=C(C#N)C(c3ccco3)C3=C(CCCC3=O)N2)c1 (stereo not drawn) | inconclusive: -39.6%
5 | CCCCNC(=O)CSc1nc(COc2ccccc2)nc2ccccc12 | active: -98.7%
6 | O=C(NCCN1CCC(n2c(=O)[nH]c3ccccc32)CC1)c1c(F)cccc1F | active: -64.1%
7 | c1csc(Cn2c(-c3cccs3)nc3ccccc32)c1 | inactive: -18.9%
8 | Cc1cc(-c2nnc(-c3cccc(Cl)c3)o2)no1 | inactive: 33.6%
9 | O=C1COc2ccc(C(=O)c3ccccc3)cc2CN1 | inactive: 18.7%
10 | COc1c2ccoc2nc2c(OC)c(OC[C@@H](O)C(C)(C)O)ccc12 | inactive: -16.2%
11 | O=C(NCc1ccccc1)C1CCN(S(=O)(=O)c2cccc3cccnc23)CC1 | inactive: -6.77%
12 | Cc1ccc(CCN2CC(C(=O)NC3CCCC3)CC2=O)cc1 (stereo not drawn) | inactive: -0.942%
13 | Cc1c(C(=O)N2CCCC2)c(S(=O)(=O)Nc2cccc(Br)c2)c(C)n1C | inconclusive: -38.7%
14 | CN(C)S(=O)(=O)c1ccc(NC(=O)N2CCN(c3ccccc3Cl)CC2)cc1 | inconclusive: -38%
15 | O=C(Nc1ncc([N+](=O)[O-])s1)C1CC(=O)N(c2ccc(F)cc2)C1 (stereo not drawn) | inactive: 28.8%
16 | O=C(CCNS(=O)(=O)c1ccc(Br)s1)Nc1ccc(Cl)cc1 | inconclusive: -41.8%
17 | CC1CCN(C(=O)CSc2nc(C3CC3)nc3ccccc23)CC1 | inconclusive: -48.8%
18 | CC1=C(C(=O)N2CCCCCC2)CC(CC(=O)NC(c2ccccc2)c2ccccc2)C(=O)N1CCC1=CCCCC1 (stereo not drawn) | inconclusive: -41.7%
19 | COc1cccc(CN(C)C(=O)CN2C(=O)NC(c3ccccc3)(c3ccccc3)C2=O)c1 | inconclusive: -34.2%
20 | O=C(Nc1cccc2c1CCCC2)c1cc(C2CCCCN2C(=O)CCCc2ccccc2)on1 (stereo not drawn) | inactive: 0%
21 | O=C1S/C(=C/c2ccc(N3CCOCC3)o2)C(=O)N1Cc1c(F)cccc1Cl | inactive: 0%
22 | Cc1ccc(OCC(=O)N/N=C/C=C/c2ccco2)cc1C | inconclusive: -32.6%

Row | SMILES | activity change
23 | O=C(c1ccc(C(=O)N2CCCc3ccccc32)s1)N1CCCc2ccccc21 | active: -51.9%
24 | Cc1ccc(-c2nc3c4ccccc4ccn3c2Cc2ccccc2C(F)(F)F)cc1 | inactive: 22.2%
25 | Cc1cc2nc(C)n(CCCNC(=O)Nc3cccc4ccccc34)c2cc1C | inconclusive: -37.1%
26 | c1coc(C2=Nc3cccc4cccc(c34)N2)c1 | inconclusive: -30.5%
27 | Cc1c(CCC(=O)NC2CC2)c(=O)oc2c(C)c(O)ccc12 | inconclusive: -45.1%
28 | COc1ccc(NC(=O)c2nc[nH]c2C(=O)N2CCN(c3ccccc3)CC2)cc1 | inactive: -12.3%
29 | CCCc1cc(CN2CCOCC2)c(O)c(CN2CCOCC2)c1O | inconclusive: -40.7%
30 | Cc1cccc(C)c1NC(=O)CN1C(=O)NC(C)(C2CC2)C1=O (stereo not drawn) | inactive: 15.6%
31 | Cc1ccccc1OCC(=O)NCC(=O)OCC(=O)c1ccc([N+](=O)[O-])cc1 | inconclusive: -43.6%
32 | Cc1nc2oc3c(NCc4ccccc4)ncnc3c2c2c1COC(C)(C)C2 | inconclusive: -32.3%
33 | S=c1[nH]nc(-c2cc(-c3ccco3)[nH]n2)n1-c1cccc2ccccc12 | inconclusive: -40.5%
34 | COc1cc(OC)cc(C(=O)Nc2sc3c(c2C(N)=O)CCC3)c1 | inconclusive: -44.9%
35 | Cc1cccc(-c2nc(CCNC(=O)c3ccco3)cs2)c1 | inconclusive: -33.7%
36 | Cc1nn(-c2ccccc2)c2ncc(C(=O)c3cc(Cl)ccc3O)cc12 | inconclusive: -38%
37 | Cc1ccc(Sc2ccc([N+](=O)[O-])cc2[N+](=O)[O-])nc1 | active: -188%
38 | Cc1ccc(OCC(=O)N/N=C\c2c(C)n(C)c3ccccc23)c([N+](=O)[O-])c1 | inconclusive: -39%
39 | COc1ccccc1CNC(=O)CN1C(=O)NC(c2ccccc2)(c2ccc(C)c(C)c2)C1=O (stereo not drawn) | inconclusive: -31.5%
40 | O=C1Nc2cc(C(=O)NCCCN3CCCC3)ccc2S/C1=C/c1ccccc1F | inconclusive: -41.2%
41 | CCCOc1ccccc1N/C(=N/c1nc(C)cc(C)n1)NC(=O)COc1ccc(OC)cc1 | inconclusive: -47.4%
42 | CCN1CCN(C(=S)NC(CC(=O)c2ccccc2)c2ccccc2)CC1 (stereo not drawn) | inconclusive: -39.9%
43 | Cc1ccn2c(=O)c(NC(=O)c3ccc4c(c3)OCO4)c(C)nc2c1 | inconclusive: -30.7%
